# Reference: the supplement of paper PMC4466236
# Over roughly 33,000 sequences, “E-score (dimensionless, -0.5 to 0.5)” has its median near -0.058; the highest 2% begin near 0.35. Some of the results follow.
# Test system: MvaT
# Experiment: PBM 8-mer E-score (mean of HK and ME arrays) (E-score (dimensionless, -0.5 to 0.5)); higher = stronger relative binding preference; most listed sequences are background and not binding sites
# Procedure: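 Protein binding microarray: GST-tagged full-length MvaT (P. aeruginosa PAO1) bound to two universal double-stranded 60-mer arrays (ME and HK), each with a constant 25-mer primer and a variable 35-mer region covering all 8-mers. The 8-mer E-score (rank-based, range -0.5 to 0.5, >0.45 = specific binding) is the mean of the two arrays.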
row,Sequence,PBM 8-mer E-score
1,CGAAAGGC,-0.183
2,GACAGGCC,-0.239
3,CCCTACCA,-0.122
4,TGGTCTAA,0.037
5,CTACTGTA,0.176
6,AAAATTGA,0.224
7,AGTTTGCC,0.0484
8,ATAGTTAA,0.339
9,CCGAGCCC,-0.26
10,CGCCGGTC,-0.192
11,CGAAGCGC,-0.154
12,TACTCTCA,0.11
13,GATTGTGA,0.092
14,GACAGCTC,-0.2
15,GTTGAGCA,-0.0536
16,GAAAGGAC,-0.24
17,CGAGCTAG,-0.17
18,ATGACAAA,0.165
19,AATTGGCT,-0.0492
20,CGTTTAAC,0.0182
21,ACTAAACT,0.317
22,ACCCGTTC,-0.267
23,CCTGAGAG,-0.32
24,AAGCCACC,-0.219
25,CCCAACGG,-0.282

row,Sequence,PBM 8-mer E-score
1,ATCGCGAC,-0.0729
2,AGTTCGCA,0.154
3,AACCGCAT,0.0136
4,CGAAGGCG,-0.125
5,GTGTCATA,0.0812
6,ATCTAACC,0.0852
7,AGAGGACA,-0.0682
8,GGACTCCC,-0.283
9,AAATACAG,0.175
10,GATATGAC,0.049
11,CGGACTCA,-0.133
12,TAACAAGA,0.212
13,AATAACCC,0.226
14,AATGTGGT,0.168
15,AGCGTGAG,-0.231
16,ATGCAGTG,-0.0239
17,AATTCGCT,0.0747
18,ACGACCTA,-0.0399
19,ACCTTCCA,0.0201
20,AGGGCTTA,-0.187
21,CAACTGTG,-0.107
22,AGGGGGCG,-0.324
23,AGTCTACA,0.112
24,CATGCCGA,0.0669
25,ATACTCAA,0.166

row,Sequence,PBM 8-mer E-score
1,CTCCAACA,-0.00785
2,CATACGAC,-0.0194
3,CATTAGGC,-0.202
4,AGTTCAAC,0.167
5,AAGTTAAG,0.243
6,ATTAGTGG,0.192
7,ACCGTTTA,0.151
8,CTCTATAC,0.00646
9,AGCGCTAA,-0.115
10,AGACCTAA,-0.0291
11,CAATCCCC,-0.108
12,TCTAGAAA,0.0814
13,TAATACGA,0.317
14,CCCTCATA,-0.0718
15,GGCCTGCA,-0.189
16,ATACTTAG,0.256
17,AGTTTTCG,0.153
18,GGGGCAAC,-0.155
19,AAGCCCCC,-0.314
20,CTAAACGC,0.0854
21,GCATGGGC,-0.165
22,TACCACCA,0.0375
23,ATTTCTGA,0.0863
24,AACCAGAT,0.0597
25,GGGAGTTA,0.0873

row,Sequence,PBM 8-mer E-score
1,CGGACCAA,-0.11
2,CGGGTCTC,-0.201
3,AGACTAAC,0.00982
4,ACCGTAAC,0.0744
5,TGCTCGAA,-0.102
6,CCCTAAAC,-0.0647
7,ATAGAATG,0.0755
8,CGCGAGCA,-0.147
9,GTTTCTGA,0.127
10,CGTGCCAA,-0.15
11,CGTCACTC,-0.168
12,TCACGCAA,-0.124
13,AGGGGCTA,-0.267
14,CATGTGCG,-0.132
15,AAATAAAT,0.428
16,AGTGGTGG,-0.104
17,GAGCTGTA,-0.0705
18,CCCTGTTA,-0.0586
19,GGCGGCAC,-0.132
20,CTGGGTCA,-0.238
21,TATAGATA,0.27
22,ATGGACTC,-0.266
23,ATTGTAAA,0.28
24,ATTCAACG,0.0307
25,ACCTATAC,0.0839

row,Sequence,PBM 8-mer E-score
1,CTGATAAG,0.013
2,CAATTAGC,-0.00502
3,CCGTCATA,0.0748
4,ACACTTTA,0.269
5,ACCAATCA,0.0313
6,GTCTTTCA,0.0345
7,ACAGACAT,0.058
8,ACGTTTGC,-0.103
9,TACCATGA,0.0348
10,AGGGCCCG,-0.227
11,ACTTGTCT,0.00162
12,ATTCTCCA,0.0681
13,AGACGGGA,-0.0586
14,CCCCCACA,-0.214
15,CCACGCCC,-0.228
16,ACGTCGAT,-0.00787
17,ACTAACTC,0.118
18,ACATAAAA,0.23
19,AAATCAGA,-0.0536
20,CCCCGGAA,-0.27
21,CAACCTGG,-0.176
22,CTGCCGAC,-0.236
23,GATAGTAC,0.106
24,ATCTTTCG,-0.00784
25,AACAGTGG,0.0654

row,Sequence,PBM 8-mer E-score
1,CCTACCCC,-0.222
2,ACGGTGAC,-0.147
3,ATCGACAC,-0.0169
4,CTTCACAA,0.027
5,ACAATGAG,0.059
6,CCACGCTC,-0.161
7,ACCGGGGC,-0.224
8,CACGGTGG,-0.225
9,GCGAAGTA,0.0165
10,ATTCGCTG,0.0455
11,AACCGCTT,-0.0683
12,ATCGGGAG,-0.073
13,GACCGCGC,-0.287
14,CGAGAAAC,0.0349
15,AAGCGGAC,-0.0883
16,GCCCTTCC,-0.259
17,CAATTTGC,0.0611
18,AAGCGTTA,0.0994
19,ATTTAGAG,0.0449
20,ACCTCAGT,-0.232
21,AGTGAGTC,-0.0914
22,AACTGTCT,0.0705
23,CCGTTTAG,-0.00254
24,ATGGTGGA,-0.0135
25,CCTCAAAG,-0.0534

row,Sequence,PBM 8-mer E-score
1,AGCAGTGA,-0.151
2,AGGGTCGA,-0.0855
3,GCTGGTCA,-0.205
4,ATATGCAG,0.239
5,ACGCTAAC,0.0546
6,GCGACCGC,-0.253
7,ATGCCGGC,-0.0385
8,GTGCTGGA,-0.194
9,CTAGATGA,-0.0874
10,CAGGCACA,-0.208
11,AGAGGTGC,-0.151
12,GAGGTTTA,-0.0268
13,GTAATAAC,0.297
14,CCTGTGGA,-0.211
15,GCAAGATA,0.156
16,AAGGAAGC,-0.151
17,TAGAACCA,-0.0287
18,GTAGCAGA,0.0283
19,CCCCCAAC,-0.358
20,ACCCCGCG,-0.175
21,ATCGGACC,-0.293
22,GACGCCAC,-0.14
23,CCCGCAGG,-0.303
24,TAGTACAA,0.257
25,CCCGTGAG,-0.219

row,Sequence,PBM 8-mer E-score
1,AAAAGCCA,-0.0988
2,CATCGGGG,-0.289
3,AAAGGCTG,-0.182
4,CGCACTTA,0.0984
5,TCGGTACA,0.0367
6,ACGTCAGG,-0.111
7,CACTTCTA,-0.0382
8,CTGATCAC,-0.174
9,AAGAACGA,-0.0544
10,GCTTGGTA,-0.156
11,AGGTCCTA,-0.0966
12,GGATGGGA,-0.168
13,CATGGTAC,-0.115
14,CGTGGAAC,-0.265
15,ATTGTGGA,0.145
16,ACGTGAAC,0.0465
17,GACGGGGA,-0.109
18,CGCGGGCC,-0.213
19,CAGATGCC,-0.361
20,CCATTCAG,-0.169
21,CACTACAG,-0.15
22,GGTAACCA,-0.156
23,CGGAGTAC,-0.128
24,ATGTAGTC,0.1
25,GCTTTGAA,0.0627

row,Sequence,PBM 8-mer E-score
1,TGATCCCA,-0.0498
2,CAAGGACC,-0.218
3,ATCCTCCC,-0.223
4,AGGCGGGG,-0.303
5,CATTACCA,0.187
6,ACGTGTAA,0.0481
7,AAGCGCAG,-0.126
8,ATTATTTA,0.44
9,ATATTCGA,0.333
10,TCTCTCCA,-0.0965
11,TCCCAGAA,-0.123
12,CCTTACTA,0.0546
13,ACACTGTA,0.223
14,CCCGAATC,-0.0385
15,TCGCCTCA,-0.171
16,GTATGCGA,0.0803
17,AGCGTACC,-0.279
18,ACAGATAA,0.287
19,AATCAATC,0.0516
